# Results: paper PMC4336329 (PLoS ONE, 2015)
# Screen size: about 310,000 compounds; about 14,000 (4.5%) showed an effect of 50% or more. Effects have a minus sign here. This is one part of the list.
# Biological target: human ether-à-go-go-related gene (hERG) potassium channel (human, UniProt Q12809)
# Experiment: primary screen, population patch clamp on CHO cells stably expressing hERG
# 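Further: peak tail current of the secondary pulse compared with the same well before compound.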
# Chain of human ether-à-go-go-related gene (hERG) potassium channel (Q12809 whole entry, looked up): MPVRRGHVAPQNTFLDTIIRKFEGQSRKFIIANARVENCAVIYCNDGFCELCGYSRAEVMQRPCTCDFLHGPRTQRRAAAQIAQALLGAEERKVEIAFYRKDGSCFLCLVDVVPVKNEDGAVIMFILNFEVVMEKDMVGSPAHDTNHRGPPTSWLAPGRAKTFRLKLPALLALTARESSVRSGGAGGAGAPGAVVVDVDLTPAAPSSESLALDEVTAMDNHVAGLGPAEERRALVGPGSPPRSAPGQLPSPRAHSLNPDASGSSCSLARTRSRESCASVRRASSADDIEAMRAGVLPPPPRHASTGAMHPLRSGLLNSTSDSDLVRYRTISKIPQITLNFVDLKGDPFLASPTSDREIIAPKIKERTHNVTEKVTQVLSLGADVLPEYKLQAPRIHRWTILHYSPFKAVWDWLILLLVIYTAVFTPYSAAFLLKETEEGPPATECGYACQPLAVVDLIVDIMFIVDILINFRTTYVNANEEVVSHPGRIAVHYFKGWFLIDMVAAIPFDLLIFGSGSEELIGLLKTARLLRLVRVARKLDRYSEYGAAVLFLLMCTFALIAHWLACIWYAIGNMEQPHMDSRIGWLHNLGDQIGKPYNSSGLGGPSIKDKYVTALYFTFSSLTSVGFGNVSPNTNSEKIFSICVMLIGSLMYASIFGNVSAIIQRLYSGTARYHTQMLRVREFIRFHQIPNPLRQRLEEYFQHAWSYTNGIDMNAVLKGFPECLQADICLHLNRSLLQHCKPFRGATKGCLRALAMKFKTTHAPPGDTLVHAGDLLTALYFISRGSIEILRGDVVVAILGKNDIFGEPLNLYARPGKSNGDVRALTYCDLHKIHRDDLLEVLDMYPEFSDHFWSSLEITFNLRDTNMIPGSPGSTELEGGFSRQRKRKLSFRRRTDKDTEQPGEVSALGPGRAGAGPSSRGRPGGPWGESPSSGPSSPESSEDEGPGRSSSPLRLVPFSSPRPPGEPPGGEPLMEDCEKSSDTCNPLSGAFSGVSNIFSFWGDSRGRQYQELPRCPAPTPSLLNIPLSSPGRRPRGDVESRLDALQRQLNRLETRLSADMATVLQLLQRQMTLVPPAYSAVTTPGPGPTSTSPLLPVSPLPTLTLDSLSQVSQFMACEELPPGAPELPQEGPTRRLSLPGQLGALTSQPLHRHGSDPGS
row,Structure (SMILES),"hERG current change (%, negative = inhibition) at 10uM [%]"
1,CC(=O)N1C[C@H](O)C[C@H]1C(=O)O,-31.6
2,Cc1ccsc1C(=O)C1CCCN(Cc2cnn(C(C)C)c2)C1 (centres unmarked),-56.4
3,O=c1c2ccccc2nc(-c2ccco2)n1-c1ccccc1,-5.2
4,CC1CCN(c2c(NCc3ccc(C(=O)NCc4ccccc4)cc3)c(=O)c2=O)CC1,24
5,COc1ccc(-n2cc(-c3ccc(OC(F)F)cc3)[n+]3c2CCCCC3)cc1.[Br-],-76.3
6,COc1cc(/C=C(\C#N)C(=O)N2CCCCC2)ccc1O,3.57
7,COc1ccc(CC(=O)NNC(=O)COc2ccc(Br)cc2C)cc1OC,-8.07
8,CC1(c2ccccc2)NC(=O)N(CC(=O)Nc2ccccc2N2CCCCC2)C1=O (centres unmarked),-13.6
9,COc1ccc(Nc2nc(NCC3CCCO3)c3ccccc3n2)c(OC)c1.Cl (centres unmarked),-71.7
10,O=S(=O)(c1ccc(S(=O)(=O)N(Cc2ccccc2)Cc2ccco2)cc1)N1CCCC1,-6.27
11,Cc1cc(C)nc(N/N=C/c2ccc(N3CCOCC3)cc2)n1,-8.51
12,Cc1nn(C(=O)c2c([N+](=O)[O-])cnn2C)c(C)c1Cl,16.9
13,Nc1cccc(C(=O)N/N=C/c2ccsc2)c1,1.65
14,C=CCn1c(SCC(=O)NCc2ccco2)nnc1-c1ccc2ccccc2n1,-28.2
15,Cc1ccc(CCP(=O)(O)CN2CCOCC2)cn1,4.84
16,O=C(CN(CC1CCCO1)C(=O)Cn1nnc(-c2ccc(F)cc2)n1)NC1CCCCC1 (centres unmarked),-21.6
17,Cc1cc(C)n2c(-c3ccccc3Cl)nnc2n1,-14.8
18,COc1ccc2[nH]c(=O)c(CN(CCc3ccccc3)Cc3nnnn3CC3CCCO3)cc2c1 (centres unmarked),-53.4
19,O=C(c1ccccn1)N1N=C2/C(=C/c3ccccc3)CCCC2C1c1ccccc1 (centres unmarked),-37.1

row,Structure (SMILES),"hERG current change (%, negative = inhibition) at 10uM [%]"
1,CCc1nnc(NS(=O)(=O)c2ccc(NC(=O)c3cccc([N+](=O)[O-])c3)cc2)s1,30.5
2,CCN(c1ccccc1)S(=O)(=O)c1cccc(C(=O)NCC(c2cccs2)N2CCOCC2)c1 (centres unmarked),-18.7
3,CCC(=O)c1ccc(OCC(=O)OCC(=O)c2cc(C)n(C)c2C)cc1,28.5
4,CC(/C=C/c1ccc(N(C)C)cc1)=N\N=C1\NC(=O)CC(C(=O)Nc2ccccc2)S1 (centres unmarked),0.489
5,O=C(CSc1ncnc2c1cnn2-c1ccccc1)NC1CCCC1,-11.6
6,O=C(c1ccc2c(c1)OCO2)N(c1ccc(F)cc1)C1C=CS(=O)(=O)C1 (centres unmarked),-1.14
7,COC(=O)C(=O)/C=C(\O)c1ccc(C)cc1,-2.4
8,Cc1cc(C(=O)NNc2ccc(Cl)cc2)no1,7.88
9,CCn1cc(CN2CCC(n3nccc3NC(=O)C(OC)c3ccccc3)CC2)cn1 (centres unmarked),12.4
10,CC(C)(C)CN1CCN(Cc2c[nH]c3ccccc23)CC1CCO (centres unmarked),15.5
11,COC(=O)c1ccc(CSc2nnc3n(Cc4ccccc4OC)c(=O)c4ccccc4n23)o1,-19.3
12,Cc1ccc(C(=O)NNS(=O)(=O)c2ccccc2[N+](=O)[O-])cc1,2.03
13,COCCNC(=O)c1ccccc1NC(=O)c1cc(OC)cc(OC)c1,-4.44
14,Cc1ccc(S(=O)(=O)NCC(=O)N(CC(=O)NCC2CCCO2)CC2CCCO2)cc1 (centres unmarked),12.4
15,CCOc1ccc(Cc2nnc(SCC(=O)Nc3ccccc3)n(N)c2=O)cc1,-25
16,Cc1ccc(S(=O)(=O)N2CCN(Cc3ccccc3)CC2)cc1,-9.58
17,CCCCN(CC)CCCNC(=O)C1CCN(c2ncnc3c2sc2cccc(F)c23)CC1,-70.3
18,C=CCc1cccc(/C=N/NC(=O)CCC(=O)Nc2ccc(F)cc2)c1O,9.26
19,C=CCc1ccccc1OCCCCN1CCCC1,-21.9

row,Structure (SMILES),"hERG current change (%, negative = inhibition) at 10uM [%]"
1,CC1CCN(CC#CCOc2ccc(Cl)cc2)CC1.O=C(O)C(=O)O,-5.81
2,Cc1ccc(/C=N/NC(=O)CCCOc2ccc(Cl)cc2Cl)cc1[N+](=O)[O-],1.01
3,C#CCNC(=O)C1=C[C@H](c2ccc(C(F)(F)F)cc2)C[C@H](OCCCCO)O1,-6.12
4,N#CCCCSc1nnnn1-c1cccc(Cl)c1,-22.2
5,Cc1ccc(OCc2ccccc2Br)c([N+](=O)[O-])n1,16.7
6,Cn1c(=O)cc(N2CCc3ccccc32)[nH]c1=O,14.4
7,CCC(=Nc1ccccc1O)C1=C(O)CC(c2ccccc2)CC1=O (centres unmarked),-1.38
8,O=C(NCCC1=CCCCC1)c1ccc(-n2cncn2)c([N+](=O)[O-])c1,-22.5
9,Fc1ccc(NC(=S)NCc2ccc3c(c2)OCO3)cc1,5.52
10,Cc1ccccc1N1C(=O)C2C3C=CC(C2C1=O)N(C)C3=O (centres unmarked),2.4
11,Cc1nn(-c2ccc(Cl)cc2Cl)c(C)c1C(=O)O,22.4
12,COc1ccc(NC(C)=O)cc1NC(=O)CN1CCN(C(=O)c2ccco2)CC1,13.9
13,CN(c1ccccc1)S(=O)(=O)c1ccc(Cl)c(C(=O)Nc2ccncc2)c1,-5.35
14,COc1cc(C(=O)N2CCN(c3ccccc3Cl)CC2)ccc1OCC(=O)N1CCOCC1,-28.6
15,O=S(=O)(N/N=C1\CC(c2ccccc2)Oc2ccccc21)c1ccccc1 (centres unmarked),-0.656
16,O=C(Cc1ccccc1[N+](=O)[O-])NC1CC2CCC1C2 (centres unmarked),-9.51
17,Oc1ccc(N2Cc3ccccc3C2)cc1,22.8
18,COc1nc(NCCO)nc(Nc2cc(Cl)ccc2OC)n1,-0.478
